Results as given in the supplement of paper PMC12578646, “Prodrug florfenicol amine is activated by intrinsic resistance to target Mycobacterium abscessus” (Nature Microbiology, 2025).
± gives the standard deviation of the averaged measurements. M. abscessus ATCC 19977 and its deletion, point and complemented mutants after 5 days of drug at 37 °C plus 24 h of resazurin. Growth in % of untreated wells at the dose given (lower = more inhibition); checkerboards give % inhibition (higher = more inhibition); IC50 from the fitted curve (lower = more potent). No active / inactive call. IC50 values come from the same 384-well curves. Growth is not capped and can exceed 100%. The direction of the checkerboard scale is read from the raw signals. Capreomycin is a mixture.

Key:
Assay in all cases: growth relative to untreated wells; higher = more growth (less inhibition)
[1] = test system: Mycobacterium abscessus ATCC 19977 WhiB7 T70fs
Experimental: (§1)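 384-well two-fold dose series, two replicates; 5 days at 37 °C, then 24 h with resazurin; fluorescence scaled to growth and killed controls.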

[2] = test system: Mycobacterium abscessus ATCC 19977
Experimental: as §1

[3] = test system: Mycobacterium abscessus ATCC 19977 Δeis2
Experimental: as §1

[4] = test system: Mycobacterium abscessus ATCC 19977 Eis2 Y227D
Experimental: as §1

[5] = test system: Mycobacterium abscessus ATCC 19977 ΔwhiB7
Experimental: as §1

[6] = test system: Mycobacterium abscessus ATCC 19977 WhiB7 L37P
Experimental: as §1

[7] = test system: Mycobacterium abscessus ATCC 19977 Eis2 T258R
Experimental: as §1

[8] = test system: Mycobacterium abscessus ATCC 19977 Eis2 Y284*
Experimental: as §1

[9] = test system: Mycobacterium abscessus ATCC 19977 Eis2 E120fs
Experimental: as §1

[10] = test system: Mycobacterium abscessus ATCC 19977 WhiB7 F24fs
Experimental: as §1

[11] = test system: Mycobacterium abscessus ATCC 19977 WhiB7 R76del
Experimental: as §1

[12] = test system: Mycobacterium abscessus ATCC 19977 Eis2 Y255*
Experimental: as §1

CN[C@@H]1[C@H](O)[C@H](NC)[C@H]2O[C@@]3(O)C(=O)C[C@@H](C)O[C@H]3O[C@@H]2[C@H]1O [spectinomycin]
Conditions	growth [%]
[1], 0.5 µg/mL	93 ± 9.1
[1], 1 µg/mL	110.3 ± 0.67
[1], 2 µg/mL	102 ± 2.7
[1], 4 µg/mL	123 ± 6.1
[1], 8 µg/mL	126 ± 4.1
[1], 16 µg/mL	129 ± 1.9
[1], 32 µg/mL	40.2 ± 2.9
[1], 64 µg/mL	-1.51 ± 1.7
[1], 128 µg/mL	-1.65 ± 2
[1], 256 µg/mL	-2.46 ± 1.1
[1], 512 µg/mL	-2.77 ± 0.027
[1], 1024 µg/mL	-0.996 ± 1.3
[2], 0.5 µg/mL	97.5 ± 8.9
[2], 1 µg/mL	108 ± 8.8
[2], 2 µg/mL	106 ± 6.8
[2], 4 µg/mL	115.2 ± 0.74
[2], 8 µg/mL	112 ± 3.1
[2], 16 µg/mL	124 ± 3
[2], 32 µg/mL	132 ± 4.9
[2], 64 µg/mL	126 ± 7.4
[2], 128 µg/mL	117 ± 2.8
[2], 256 µg/mL	32 ± 16
[2], 512 µg/mL	24.6 ± 13
[2], 1024 µg/mL	3.03 ± 0.78
[3], 0.5 µg/mL	98.8 ± 6.6
[3], 1 µg/mL	105.5 ± 0.17
[3], 2 µg/mL	105 ± 3.5
[3], 4 µg/mL	112 ± 2.3
[3], 8 µg/mL	108.7 ± 0.21
[3], 16 µg/mL	115 ± 7.9
[3], 32 µg/mL	125 ± 3.4
[3], 64 µg/mL	122 ± 6.2
[3], 128 µg/mL	123 ± 7.1
[3], 256 µg/mL	49.4 ± 2.8
[3], 512 µg/mL	11 ± 4.8
[3], 1024 µg/mL	1.72 ± 0.29
[4], 0.5 µg/mL	97.1 ± 7.6
[4], 1 µg/mL	105.3 ± 0.79
[4], 2 µg/mL	100 ± 3.7
[4], 4 µg/mL	116 ± 3.7
[4], 8 µg/mL	112 ± 9.1
[4], 16 µg/mL	123.8 ± 0.3
[4], 32 µg/mL	132 ± 3.8
[4], 64 µg/mL	131 ± 1.6
[4], 128 µg/mL	116 ± 31
[4], 256 µg/mL	30.9 ± 3.8
[4], 512 µg/mL	22.14 ± 0.064
[4], 1024 µg/mL	6.09 ± 0.18
[5], 0.5 µg/mL	105 ± 6.4
[5], 1 µg/mL	117 ± 12
[5], 2 µg/mL	112 ± 4.6
[5], 4 µg/mL	120 ± 8.8
[5], 8 µg/mL	149 ± 9.2
[5], 16 µg/mL	152 ± 6.1
[5], 32 µg/mL	27.5 ± 9.3
[5], 64 µg/mL	-0.952 ± 3
[5], 128 µg/mL	-1.91 ± 4
[5], 256 µg/mL	-2.26 ± 3.9
[5], 512 µg/mL	-2.03 ± 4.4
[5], 1024 µg/mL	-0.422 ± 4.3
[6], 0.5 µg/mL	102 ± 3
[6], 1 µg/mL	117 ± 6.8
[6], 2 µg/mL	107 ± 5.8
[6], 4 µg/mL	128 ± 6.9
[6], 8 µg/mL	134 ± 2.7
[6], 16 µg/mL	138 ± 3.5
[6], 32 µg/mL	32.4 ± 1.3
[6], 64 µg/mL	1.99 ± 0.64
[6], 128 µg/mL	-0.0571 ± 0.082
[6], 256 µg/mL	-0.0832 ± 0.26
[6], 512 µg/mL	-0.0909 ± 0.007
[6], 1024 µg/mL	1.07 ± 0.28
[7], 0.5 µg/mL	89.8 ± 6.7
[7], 1 µg/mL	107 ± 4.8
[7], 2 µg/mL	95.4 ± 2.5
[7], 4 µg/mL	113 ± 2
[7], 8 µg/mL	92.6 ± 2.5
[7], 16 µg/mL	119 ± 3.1
[7], 32 µg/mL	119 ± 7.7
[7], 64 µg/mL	115 ± 8
[7], 128 µg/mL	98.7 ± 22
[7], 256 µg/mL	26.1 ± 7.8
[7], 512 µg/mL	13.7 ± 2.2
[7], 1024 µg/mL	1.96 ± 0.17
[8], 0.5 µg/mL	85.9 ± 2.3
[8], 1 µg/mL	108 ± 6
[8], 2 µg/mL	100 ± 2.3
[8], 4 µg/mL	113 ± 4.9
[8], 8 µg/mL	110 ± 1.6
[8], 16 µg/mL	123 ± 2.4
[8], 32 µg/mL	125 ± 1.7
[8], 64 µg/mL	129 ± 0.4
[8], 128 µg/mL	97.5 ± 32
[8], 256 µg/mL	47.3 ± 0.23
[8], 512 µg/mL	9.89 ± 18
[8], 1024 µg/mL	3.15 ± 0.65
[9], 0.5 µg/mL	95.9 ± 3.3
[9], 1 µg/mL	122 ± 7.4
[9], 2 µg/mL	104 ± 8.7
[9], 4 µg/mL	118 ± 4.3
[9], 8 µg/mL	119 ± 1.5
[9], 16 µg/mL	129.3 ± 0.5
[9], 32 µg/mL	132 ± 3.8
[9], 64 µg/mL	138 ± 2.2
[9], 128 µg/mL	133 ± 7.7
[9], 256 µg/mL	57.8 ± 22
[9], 512 µg/mL	24.1 ± 6.3
[9], 1024 µg/mL	5.01 ± 0.27
[10], 0.5 µg/mL	100 ± 14
[10], 1 µg/mL	116 ± 2.1
[10], 2 µg/mL	111 ± 3.2
[10], 4 µg/mL	126 ± 4.2
[10], 8 µg/mL	129 ± 3.5
[10], 16 µg/mL	135 ± 5
[10], 32 µg/mL	33.2 ± 1.4
[10], 64 µg/mL	1.9 ± 1.9
[10], 128 µg/mL	0.608 ± 1.5
[10], 256 µg/mL	-0.883 ± 0.13
[10], 512 µg/mL	-0.43 ± 0.27
[10], 1024 µg/mL	1.17 ± 1.1
[11], 0.5 µg/mL	101 ± 4.4
[11], 1 µg/mL	115 ± 2
[11], 2 µg/mL	110 ± 0.28
[11], 4 µg/mL	130 ± 8.1
[11], 8 µg/mL	130.6 ± 1.1
[11], 16 µg/mL	137 ± 0.71
[11], 32 µg/mL	41.5 ± 6.3
[11], 64 µg/mL	1.53 ± 0.61
[11], 128 µg/mL	0.864 ± 2.5
[11], 256 µg/mL	-0.716 ± 0.89
[11], 512 µg/mL	-2.34 ± 2
[11], 1024 µg/mL	1.02 ± 0.78
[12], 0.5 µg/mL	91.7 ± 2.6
[12], 1 µg/mL	108 ± 0.4
[12], 2 µg/mL	101 ± 14
[12], 4 µg/mL	125 ± 1.3
[12], 8 µg/mL	106.8 ± 0.12
[12], 16 µg/mL	127 ± 3
[12], 32 µg/mL	128 ± 1.6
[12], 64 µg/mL	137.2 ± 1.1
[12], 128 µg/mL	117 ± 2.3
[12], 256 µg/mL	36.3 ± 11
[12], 512 µg/mL	18.3 ± 1.8
[12], 1024 µg/mL	2.54 ± 2.9
